# Measurements reported in PubChem BioAssay (Tox21).
# Several values for one entry are separate records, joined by “and”; a condition that tells them apart may be missing. Identical values can stand only once. Inconclusive results, whose numbers are uncertain, are shown with a selection of clear calls. Potencies of inconclusive entries are doubtful fits and often do not repeat. A structure can be active in one record and inactive in another. Activity calls are given as the source filed them. Unless noted, calls come from the whole dose curve; as a rule, active = well fitted curve in the direction sought with a large enough effect in the repeat runs; inconclusive = weak or mixed curves; inactive = no such curve, though single readings can be large; an effect the other way counts as inactive or inconclusive.
# What was measured:
# [1] = qHTS assay to identify small molecule antagonists of the androgen receptor (AR) signaling pathway - cell viability counter screen (AID 743033; note: nearly all actives have a fitted effect of over 45% in size; for activity change, negative = cytotoxicity: % is set by controls: 0 for no effect and ±100 for the full control effect); conditions: AR-bla HEK293 viability, CellTiter-Glo luminescence, 16 h; series mostly up to 58.5 µM
# [2] = target: Androgen receptor (Homo sapiens) (UniProt P10275); experiment: qHTS assay to identify small molecule antagonists of the androgen receptor (AR) signaling pathway (AID 743035; active = well fitted inhibition curve with a large enough effect in the signal ratio in the repeat runs, not every such curve was filed as active; inconclusive = weak or mixed curves, or effect the other way; inactive = no such curve, though single readings can be large or run the other way; the % refers to the signal ratio; for activity change, negative = inhibition: % is set by controls: 0 for no effect and ±100 for the full control effect); conditions: HEK293 AR-UAS-bla, R1881-stimulated, beta-lactamase FRET, 16 h; activity change, negative = inhibition: at 58.5 µM (top of the series) unless noted
# Sequence of UniProt P10275 (P10275 whole entry, looked up): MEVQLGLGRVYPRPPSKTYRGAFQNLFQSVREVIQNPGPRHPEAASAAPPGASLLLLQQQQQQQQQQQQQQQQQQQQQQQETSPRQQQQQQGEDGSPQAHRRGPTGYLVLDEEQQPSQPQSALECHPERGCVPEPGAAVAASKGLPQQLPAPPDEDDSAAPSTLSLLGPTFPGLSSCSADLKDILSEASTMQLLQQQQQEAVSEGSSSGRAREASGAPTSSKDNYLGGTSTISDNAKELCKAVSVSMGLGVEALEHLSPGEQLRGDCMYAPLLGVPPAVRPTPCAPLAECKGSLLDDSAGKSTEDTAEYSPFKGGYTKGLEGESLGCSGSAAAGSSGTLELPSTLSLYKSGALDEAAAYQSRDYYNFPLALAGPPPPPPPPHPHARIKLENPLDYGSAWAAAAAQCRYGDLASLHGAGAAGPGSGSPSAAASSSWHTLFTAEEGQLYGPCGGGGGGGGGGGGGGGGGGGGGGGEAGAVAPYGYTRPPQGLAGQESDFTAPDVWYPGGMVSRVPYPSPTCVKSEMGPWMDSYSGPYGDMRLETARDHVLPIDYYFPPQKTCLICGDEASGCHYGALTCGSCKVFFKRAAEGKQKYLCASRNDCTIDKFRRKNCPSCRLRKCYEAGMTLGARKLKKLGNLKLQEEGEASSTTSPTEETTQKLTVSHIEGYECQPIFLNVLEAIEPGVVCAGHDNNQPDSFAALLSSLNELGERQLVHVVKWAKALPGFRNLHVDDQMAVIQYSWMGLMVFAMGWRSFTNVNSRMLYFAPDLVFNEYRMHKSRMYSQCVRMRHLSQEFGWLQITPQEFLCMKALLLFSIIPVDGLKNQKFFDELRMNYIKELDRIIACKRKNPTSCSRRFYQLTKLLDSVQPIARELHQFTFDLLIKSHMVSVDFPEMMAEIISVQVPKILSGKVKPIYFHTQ
# How it was run: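 Antagonist mode: AR-bla HEK293 cells co-treated with test compounds and agonist R1881 for 16 h at 37C, 5% CO2. Beta-lactamase activity read as FRET fluorescence after 2 h room-temperature substrate loading.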
# [3] = target: Androgen receptor (Homo sapiens) (UniProt P10275); experiment: qHTS assay to identify small molecule agonists of the androgen receptor (AR) signaling pathway (AID 743036; active = well fitted activation curve with a large enough effect in the signal ratio in the repeat runs, with a control signal flat, not every such curve was filed as active; inconclusive = weak or mixed curves, or effect the other way; inactive = no such curve, though single readings can be large or run the other way; the % refers to the signal ratio; for activation: % is set by controls: 0 for no effect and ±100 for the full control effect); conditions: HEK293 AR-UAS-bla GripTite, beta-lactamase FRET ratio, 16 h; activation: at 62.4 µM (top of the series) unless noted
# How it was run: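 Beta-lactamase under UAS control, stably integrated in HEK293 GripTite cells, reports receptor activation. After 16 h compound treatment, cells received FRET substrate for 2 h at room temperature before fluorescence reading.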
# [4] = qHTS assay to identify small molecule antagonists of the androgen receptor (AR) signaling pathway using the MDA cell line - cell viability counter screen (AID 743041; note: nearly all actives have a fitted effect of over 45% in size); conditions: MDA-kb2 viability, CellTiter-Fluor, 16 h, cells co-treated with R1881 androgen agonist; viability change, negative = cytotoxic: at 70.3 µM (top of the series) unless noted
# How it was run: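 Compound exposure lasted 16 h at 37C in MDA-kb2 AR-luc cells stimulated with R1881. Protease-based CellTiter-Fluor reagent was applied for the final 30 min and fluorescence measured.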
# [5] = target: Androgen receptor (Homo sapiens) (UniProt P10275); experiment: qHTS assay to identify small molecule antagonists of the androgen receptor (AR) signaling pathway using the MDA cell line (AID 743042; note: nearly all actives have a fitted effect of over 55% in size; for activity change, negative = inhibition: % is set by controls: 0 for no effect and ±100 for the full control effect); conditions: MDA-kb2 AR-luc, MMTV luciferase, R1881 antagonist, 16 h; series mostly up to 70.3 µM
# How it was run: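 MDA-kb2 breast carcinoma cells carrying MMTV-luciferase (AR/GR responsive) were co-treated with compounds and the agonist R1881 for 16 h at 37C. Inhibition read as ONE-Glo luminescence; CellTiter-Fluor fluorescence measured in parallel for cytotoxicity.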
# [6] = qHTS assay to identify small molecule antagonists of the thyroid receptor (TR) signaling pathway - cell viability counter screen (AID 743064); conditions: GH3.TRE-Luc viability, CellTiter-Fluor, 24 h; activity change, negative = cytotoxic: at 70.3 µM (top of the series) unless noted; note: nearly all actives have a fitted effect of over 50% in size
# How it was run: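 Compounds were tested on GH3.TRE-Luc cells in the presence of T3 at 1 nM final. Following 23.5 h at 37 °C, cell viability was quantified by CellTiter-Fluor.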
# [7] = qHTS assay to identify small molecule antagonists of the thyroid receptor (TR) signaling pathway (AID 743065); conditions: GH3.TRE-Luc, T3-stimulated luciferase inhibition, 23.5 h; series mostly up to 70.3 µM; note: nearly all actives have a fitted effect of over 55% in size
# How it was run: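 GH3.TRE-Luc rat pituitary cells (two TREs driving luciferase) were dosed with compound, then stimulated with 1 nM T3 (final) for 23.5 h at 37 C. ONE-Glo luminescence was the read-out, with CellTiter-Fluor fluorescence as the cytotoxicity counter-screen.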
# [8] = target: Androgen receptor (Homo sapiens) (UniProt P10275); experiment: qHTS assay to identify small molecule agonists of the androgen receptor (AR) signaling pathway using the MDA cell line (AID 743040; note: nearly all actives have a fitted effect of over 20% in size); conditions: MDA-kb2 AR-luc cells, MMTV luciferase, 16 h; activity change: at 70.3 µM (top of the series), stronger effect = higher value
# How it was run: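 Testing was done with the MDA-kb2 AR-luc line, a human breast carcinoma stably transfected with MMTV-luciferase containing AR and GR response elements. Cells were exposed 16 h at 37C before ONE-Glo luminescence detection.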
# [9] = qHTS assay for identifying genotoxic compounds that show differential cytotoxicity against isogenic chicken DT40 cell lines with known DNA damage response pathways - Rad54/Ku70 mutant cell line (AID 743015); conditions: DT40 Rad54/Ku70 mutant viability, CellTiter-Glo, 40 h; activity change, negative = cytotoxicity: at 66.8 µM (top of the series) unless noted; note: nearly all actives have a fitted effect of over 60% in size
# Potency is the fitted concentration of half-maximal effect; tags give direction and shape of the fitted curve or compound fluorescence and quenching.
smiles,measurement,setting,value
CC(=O)c1ccc(S(=O)(=O)NC(=O)NC2CCCCC2)cc1,Potency,[1],inactive
same,Potency,[2],inactive
same,Potency,[3],inactive
Cc1cc(Cc2cc(C)cc(C(C)(C)C)c2O)c(O)c(C(C)(C)C)c1,Potency,[1],active: 22 µM
Cc1cc(O)c(C(C)(C)C)cc1Sc1cc(C(C)(C)C)c(O)cc1C,Potency,[1],active: 15.5 µM
same,Potency,[2],"inconclusive: 38.8 µM [falling, partial curve]"
same,Potency,[3],"inconclusive: 21.8 µM [cytotoxic, full curve]"
CC1=C(/C=C/C(C)=C/C=C/C(C)=C/C(=O)Nc2ccc(O)cc2)C(C)(C)CCC1,Potency,[1],active: 44.8 µM
same,Potency,[2],active: 23.9 µM and active: 14.2 µM
same,Potency,[3],"inconclusive: 26.8 µM [cytotoxic, partial curve, poor fit] and inconclusive: 56.4 µM [cytotoxic]"
same,Potency,[4],active: 23.7 µM and active: 44.4 µM
C=C1C(C)(C)[C@@]2(Cl)C(Cl)[C@]1(Cl)C(Cl)(Cl)C2(Cl)Cl (some centres undefined),Potency,[1],"inconclusive: 60.5 µM [cytotoxic, single point]"
same,Potency,[2],inconclusive: 48.1 µM
same,Potency,[3],inactive
same,Potency,[5],inactive
same,Potency,[6],active: 26.8 µM
same,Potency,[7],active: 23.9 µM
Oc1ccc(C2(c3ccc(O)cc3)CC3CC2C2CCCC32)cc1 (centres undefined),Potency,[1],active: 47 µM
same,Potency,[2],"inconclusive: 59.2 µM [falling, single point]"
same,Potency,[3],inconclusive: 52.8 µM [cytotoxic]
same,Potency,[4],"inconclusive: 73.9 µM [rising, partial curve, poor fit]"
same,Potency,[5],"inconclusive: 14.7 µM [inhibitor, partial curve, poor fit]"
same,Potency,[6],active: 26.2 µM
COc1cc(-c2nc(NC(=O)c3cc4cc(C)cc(C)c4n3CC(=O)O)sc2CCC2CCCCC2)c(OC)cc1Cl,Potency,[1],"inconclusive: 11.3 µM [cytotoxic, partial curve]"
same,Potency,[2],active: 5.65 µM
same,activation,[3],inconclusive: 53.6%
same,Potency,[8],inactive
same,Potency,[4],"inconclusive: 25 µM [cytotoxic, partial curve, poor fit]"
same,Potency,[5],"inconclusive: 25 µM [inhibitor, single point]"
same,Potency,[6],active: 12.5 µM
Clc1ccc(C(Cn2ccnc2)OCc2ccsc2Cl)c(Cl)c1 (centres undefined),Potency,[1],active: 26.8 µM
C[C@@H]1CC(=O)NN=C1c1ccc(NN=C(C#N)C#N)cc1,Potency,[1],"inconclusive: 26.8 µM [rising, single point]"
same,Potency,[2],"inconclusive: 7.56 µM [rising, partial curve, poor fit]"
same,activation,[3],inconclusive: -18.4%
same,Potency,[4],active: 29.8 µM
same,Potency,[5],"inconclusive: 21.1 µM [inhibitor, partial curve]"
same,Potency,[6],active: 15 µM
CN(C)C(=O)C1(N2CCCCC2)CCN(CC[C@@]2(c3ccc(Cl)c(Cl)c3)CN(C(=O)c3ccccc3)CCO2)CC1,Potency,[1],active: 16.2 µM
same,Potency,[2],inconclusive: 51.3 µM
same,Potency,[3],inconclusive: 51.3 µM [cytotoxic]
CCCC(=O)c1cc(O)c(O)cc1O,Potency,[1],inconclusive: 54.9 µM [cytotoxic]
same,Potency,[2],inconclusive: 54.9 µM
same,Potency,[3],"inconclusive: 38.9 µM [rising, partial curve, poor fit]"
same,Potency,[4],inconclusive: 61.1 µM [cytotoxic]
same,Potency,[6],inconclusive: 33.4 µM [cytotoxic]
C[n+]1cc2c3c(ccc2c2ccc4cc5c(cc4c21)OCO5)OCO3,Potency,[1],"inconclusive: 6.74 µM [cytotoxic, full curve, poor fit]"
same,Potency,[2],"inconclusive: 12 µM [rising, partial curve, poor fit]"
same,activation,[3],inconclusive: 30.3%
same,Potency,[4],active: 26.6 µM
same,Potency,[5],active: 18.8 µM
same,Potency,[6],active: 2.98 µM
CN(C)c1ccc(C(=C2C=CC(=[N+](C)C)C=C2)c2ccccc2)cc1,Potency,[1],"inconclusive: 6.01 µM [cytotoxic, full curve] and active: 155 nM"
CCCCCCCCCCCC(=O)NCCCN(C)C,Potency,[1],active: 43.6 µM
same,Potency,[2],"inconclusive: 54.9 µM [falling, single point]"
same,Potency,[3],inconclusive: 54.9 µM [cytotoxic]
same,Potency,[4],"inconclusive: 27.3 µM [cytotoxic, full curve]"
same,Potency,[5],"inconclusive: 21.7 µM [inhibitor, full curve, poor fit]"
same,Potency,[6],active: 17.2 µM
same,Potency,[7],active: 17.2 µM
CN(C[C@@H](CC[N+]12CCC(C3CCCCC3)(CC1)CC2)c1ccc(Cl)c(Cl)c1)C(=O)c1cc(C(F)(F)F)cc(C(F)(F)F)c1,Potency,[1],active: 19.5 µM
same,Potency,[2],"inconclusive: 21.9 µM [falling, partial curve]"
same,Potency,[3],"inconclusive: 38.9 µM [cytotoxic, partial curve]"
same,Potency,[4],active: 61.1 µM
same,Potency,[6],active: 21.7 µM
CC(=O)O[C@]1(C(C)=O)CC[C@H]2[C@@H]3C=C(C)C4=CC(=O)CC[C@]4(C)[C@H]3CC[C@@]21C,Potency,[9],"inconclusive: 14.3 µM [cytotoxic, single point]"
same,Potency,[7],inconclusive: 12.7 µM [inhibitor]
C[C@H]1O[C@@H](O[C@H]2[C@@H](O)C[C@H](O[C@H]3[C@@H](O)C[C@H](O[C@H]4CC[C@@]5(C)[C@H](CC[C@@H]6[C@@H]5C[C@@H](O)[C@]5(C)[C@@H](C7=CC(=O)OC7)CC[C@]65O)C4)O[C@@H]3C)O[C@@H]2C)C[C@H](O)[C@@H]1O,Potency,[1],active: 84.9 nM and active: 15.5 nM and active: 30.6 nM
same,Potency,[2],active: 338 nM and active: 61.7 nM and active: 136 nM
same,Potency,[3],"inconclusive: 95.2 nM [activator, single point] and inconclusive: 30.6 nM [activator]"
same,activation,[3],inconclusive: -13.7%
same,Potency,[8],"inconclusive: 266 nM [activator, full curve, poor fit] and inconclusive: 38.6 nM [activator, full curve, poor fit] and inconclusive: 60.4 nM [activator, full curve, poor fit]"
same,Potency,[4],"inconclusive: 0.278 µM [cytotoxic, full curve]"
CCCCCCCCCCCCCCCCCCNC(=O)OC1CCN(C(=O)OC[C@H](COC(=O)N(Cc2cccc[n+]2CC)C(=O)c2ccccc2OC)OC)CC1,Potency,[1],inconclusive: 23.9 µM [cytotoxic]
same,Potency,[2],active: 10.7 µM
same,Potency,[3],"inconclusive: 26.8 µM [cytotoxic, single point]"
same,Potency,[4],active: 23.7 µM
same,Potency,[6],active: 15 µM
Cc1nc(-c2ccc3c(c2)CCN(CCC2CCC(NC(=O)/C=C/c4ccc(F)cc4)CC2)CC3)no1 (centres undefined),Potency,[1],"inconclusive: 7.78 µM [cytotoxic, partial curve]"
same,"activity change, negative = inhibition",[2],inconclusive: 2.62% [at 27 µM]
same,Potency,[3],inconclusive: 21.9 µM
Cc1cc(CCN2CCN(c3nsc4ccccc34)CC2)cc2c1NC(=O)CC2(C)C,Potency,[1],active: 13.8 µM
same,Potency,[2],"inconclusive: 21.9 µM [rising, partial curve]"
same,activation,[3],inconclusive: 17.8%
Cc1cc(O)c(Cl)c(C)c1Cl,Potency,[1],active: 27.5 µM
same,Potency,[2],inconclusive: 54.9 µM
same,Potency,[3],inconclusive: 54.9 µM
same,Potency,[4],"inconclusive: 68.6 µM [cytotoxic, single point]"
same,Potency,[6],active: 17.2 µM
N#CSCSc1nc2ccccc2s1,Potency,[1],active: 13.8 µM
same,Potency,[2],"inconclusive: 61.6 µM [falling, single point]"
same,Potency,[3],"inconclusive: 54.9 µM [activator, partial curve, poor fit]"
same,Potency,[4],"inconclusive: 68.6 µM [cytotoxic, single point]"
same,Potency,[5],"inconclusive: 77 µM [inhibitor, single point]"
O=C(NO)c1ccccc1,Potency,[1],inconclusive: 41.6 µM [cytotoxic]
same,Potency,[2],inconclusive: 13.1 µM [full curve]
same,Potency,[3],"inconclusive: 9.3 µM [rising, partial curve, poor fit]"
same,Potency,[5],inactive
same,Potency,[6],active: 26 µM
CCCCC(CC)COC(=O)c1ccc(N(C)C)cc1 (centres undefined),Potency,[9],"inconclusive: 33.5 µM [cytotoxic, single point]"
same,Potency,[6],"inconclusive: 33.5 µM [cytotoxic, single point] and inactive"
same,Potency,[7],inconclusive: 33.5 µM [inhibitor]
NCc1cccc(C2CCN(C(=O)c3ccc(C#Cc4ccccc4F)o3)CC2)c1,Potency,[1],active: 21.9 µM
same,Potency,[2],"inconclusive: 54.9 µM [falling, partial curve]"
same,Potency,[3],inconclusive: 49 µM [partial curve]
same,Potency,[4],inconclusive: 68.6 µM [cytotoxic]
same,Potency,[5],"inconclusive: 68.6 µM [inhibitor, single point]"
same,Potency,[6],active: 7.7 µM
CCCCCCCCCCCCCC[P+](CCCC)(CCCC)CCCC (tested in a mixture with another compound),Potency,[1],active: 0.983 µM
same,Potency,[2],active: 1.75 µM
same,Potency,[3],"inconclusive: 55.3 µM [cytotoxic, single point]"
same,Potency,[4],active: 5.48 µM
same,Potency,[5],active: 3.46 µM
same,Potency,[6],active: 4.35 µM
Oc1cc2ccccc2c2ccccc12,Potency,[1],active: 9.77 µM
same,Potency,[2],inconclusive: 9.77 µM [full curve]
same,Potency,[3],inconclusive: 19.5 µM
same,Potency,[4],active: 27.3 µM
same,Potency,[5],active: 13.7 µM
CCC(C)Nc1ccc(NC(C)CC)cc1 (centres undefined),Potency,[1],active: 12.5 µM
same,Potency,[2],active: 8.88 µM
same,activation,[3],inconclusive: 20.2% [at 79.1 µM]
same,Potency,[4],active: 19.7 µM
same,Potency,[5],active: 8.8 µM
same,Potency,[6],active: 14 µM
CC(C)(c1cc(Br)c(OCCO)c(Br)c1)c1cc(Br)c(OCCO)c(Br)c1,Potency,[1],"inconclusive: 42.7 µM [cytotoxic, single point]"
same,Potency,[2],active: 17 µM
same,Potency,[3],inactive
same,Potency,[4],"inconclusive: 59.7 µM [cytotoxic, single point]"
same,Potency,[5],active: 42.3 µM
